Laboratory results reported in the supplement of paper PMC5655136.
These are enrichments in a pooled selection; single values are uncertain.

Tested on: NB7
Experiment: fold depletion of shRNA, plasmid library share / infected cells without Dox share (9 days) (ratio); higher = more depleted after infection (more toxic, leaky expression from a Tet-inducible vector; NB7 is a neuroblastoma line without caspase-8)
[1] = shRNA pool: CD95 ORF + CD95 3'UTR + Venus libraries
[2] = shRNA pool: CD95L ORF + CD95L 3'UTR + Venus libraries
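Note: shRNA barcodes quantified by deep sequencing of PCR amplicons from cellular DNA, counts expressed as percent of each subpool, ratio averaged over two biological duplicates.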

Sequence	fold depletion of shRNA [1]	fold depletion of shRNA [2]
GATTATGCTCTGGCATCTAAC	0.738	–
ATGTAAAGTATATGTATTTGA	0.857	–
GCCATGCCCGAAGGCTACGTC	0.976	1.15
GATTTTACCATATTTCTAAAC	0.93	–
CTGCCACCCCTGAAGAAGAGA	–	4.17
CTGATCTGCACCACCGGCAAG	2.08	2.94
AAAATACTTAATAGTCCACCA	1.02	–
ATTCTCCTTACTACTATCCTA	0.791	–
ACTGACATCAACTCCAAGGGA	1.46	–
CATGAATCTCCAACTTTAAAT	0.587	–
AATTGCTCTTGTCATACCCCC	2.89	–
ATTGTGTGATGAAGGACATGG	3.3	–
CCAAAAAATACTTAATAGTCC	0.721	–
TTTCATGGTTCTGGTTGCCTT	–	2.76
ATCTGGTGATGATGGAGGGGA	–	1.99
GGGGTGTGTGTGTGTGTGTGT	–	2.03
CTTACTACTATCCTACGTTTA	0.723	–
GTGTTAATGCCCAAGTGACTG	0.565	–
CGCGCCGAGGTGAAGTTCGAG	0.74	1.55
GAGGGGAAGATGATGAGCTAC	–	1
TGTGATGTTTTTCATGGTTCT	–	1.79
CCAGCCAGATGCACACAGCAT	–	4.31
ACCAGACTGCGTGCCCTGCCA	0.926	–

Sequence	fold depletion of shRNA [1]	fold depletion of shRNA [2]
TCAGCTCTTCCACCTACAGAA	–	1.51
AATGTCTATCCACAGGCTAAC	2.81	–
ATAGTTATAAACTGAAGCAGA	0.929	–
AAGTAGCTTTGTGACATGTCA	0.351	–
TGAGTGCAGAATTTAAATAAG	1.02	–
TTCTGTAGTATGAATGTAATC	0.797	–
TGAAGATAGTTATAAACTGAA	0.844	–
TATTTGAGTGCAGAATTTAAA	1.05	–
GAGTGCAGAATTTAAATAAGG	0.88	–
CTAATTGTTTGGGTGAAGAGA	2.54	–
ACTTCAAGATCCGCCACAACA	3.89	–
TGTAATCAGTGTATGTTAGTA	0.853	–
ACAACGTCTATATCACCGCCG	2.38	1.83
GCCCACCCTCGTGACCACCCT	1.09	0.486
TAAAATATAGGTAAAAGTACG	1.99	–
CACCCGGACCCAGAATACCAA	1.68	–
TGTGAAATGAAAACATGTAAT	–	0.599
CTGAAATATCAGTTACTGAAC	1.03	–
TGTAAAACCTGCTACAAATGG	4.07	–
TACCTGAGCTACCAGTCCGCC	0.767	–
AAACTGCACCCGGACCCAGAA	1.04	–
GCTGGACGGCGACGTAAACGG	0.79	0.567
GCTAAGTACCCAAATAGGAGT	3.52	–

Sequence	fold depletion of shRNA [1]	fold depletion of shRNA [2]
GGAACTCTAAGTATCCCCAGG	–	1.84
CTTGTGTTTGGAATTATAAAA	0.907	–
AGGACGGCGGCGTGCAGCTCG	0.621	2.08
GCCAGACAAATGGAGGAATAT	–	1.51
GGAAGGCCTGCATCATGATGG	1.27	–
AGAATGTTGTATTCAGTGAGG	–	0.713
CAACTCACCTAATGTTTATGA	–	1.3
AGAAAGTAGCTTTGTGACATG	2.34	–
AACCAGACTGCGTGCCCTGCC	2.05	–
GGGATCACTCTCGGCATGGAC	1.22	2.89
TGGAATTATAAAATATAGGTA	0.545	–
CCTTTTGCTGAAATATCAGTT	0.998	–
AAAGGAAGTACAGAAAACATG	0.993	–
CTTCAATTACCCATATCCCCA	–	0.881
ATCTGATGTTGACTTGAGTAA	1.01	–
ATAAACTGAAGCAGATACCTG	1.34	–
CAAGGGCGAGGAGCTGTTCAC	0.83	2.19
GATGTTTTGGGGACTCATTTC	–	6.91
ACCACCACCACCGCCACCGCC	–	27.7
ATCAGTGTATGTTAGTACAAA	0.959	–
TACCAGTCCGCCCTGAGCAAA	0.921	1.83
GCTGTTCACCGGGGTGGTGCC	1	0.953
GACAACCACTACCTGAGCTAC	2.24	2.16

Sequence	fold depletion of shRNA [1]	fold depletion of shRNA [2]
CCCCAGTCCACCCCCTGAAAA	–	3.26
CTCGTGACCACCCTGGGCTAC	0.962	1
CGAGAAGCGCGATCACATGGT	0.95	1.12
GATGCACACAGCATCATCTTT	–	1.01
AAAATGTCTGTAGCTCCTCAA	–	2.48
TTGCATAATAAGCTAAAGAGG	–	0.777
TGGGGCACAAGCTGGAGTACA	0.912	0.968
GCCTGTGTCTCCTTGTGATGT	–	4.23
AGGCAAGTCCAACTCAAGGTC	–	0.818
TGGGTACATTTTATCATTTAT	0.786	–
GGCAGCTTATACATAGCAATG	1.63	–
TAATCAGTGTATGTTAGTACA	1.56	–
CTTACCAGTGCTGATCATTTA	–	2.61
TTCGCCCGCTACCCCGACCAC	1.7	2.56
GAGCTGTTCACCGGGGTGGTG	1.92	2.03
TAATGATGTTTTCCTATAATA	–	0.567
AGAGGGAACCACAGCACAGGC	–	7.41
CCACCCCCTGAAAAAAAGGAG	–	1.41
CCCCAACGAGAAGCGCGATCA	1.11	1.14
CCACAGGCTAACCCCACTCTA	0.763	–
ACTACCAGCAGAACACCCCCA	1.2	1.22
CAAGGTCTACATGAGGAACTC	–	0.631
ATCACCAAAAAATACTTAATA	0.879	–

Sequence	fold depletion of shRNA [1]	fold depletion of shRNA [2]
CTACCAGCAGAACACCCCCAT	0.967	1.33
CCACAACGTCTATATCACCGC	1.68	2.32
AGATGATAAAATAGATTCTTA	0.7	–
GCCCGTGCCCTGGCCCACCCT	1.01	1.44
AGATTCTCCTTACTACTATCC	1.73	–
CAAAACTACCTACTTCTTTCT	0.895	–
TGGGCTACGGCCTGCAGTGCT	0.538	0.685
GGGTTCAAAATGTCTGTAGCT	–	0.973
TAAATAAGGCTCTACCTCAAA	0.467	–
CAGAACAGAAAGTTCAACTGC	2.75	–
GATCTGCACCACCGGCAAGCT	0.667	1.21
CGCCCGCTACCCCGACCACAT	1.44	0.773
TGCACACTCACCAGCAACACC	0.745	–
GTTAGTACAAATGTCTATCCA	1.45	–
GCCTGCAGTGCTTCGCCCGCT	0.894	0.551
GGCCCCTCCAGGCACAGTTCT	–	1.12
GTAAAAGTACGTAATTAAATA	1.07	–
AATTCTGCCATAAGCCCTGTC	0.428	–
CTACCTCTGGTTCTTACGTCT	1.76	–
TGCTTCGCCCGCTACCCCGAC	1.58	0.833
CTTTGCCACCTCTCCATTTTT	0.471	–
GTCAGCTACTAATGATGTTTT	–	2.31
ATCCTCAAGGACATTACTAGT	1.19	–
